Measured values: PMC12820563, “FoxP3 forms a head-to-head dimer in vivo and stabilizes its multimerization on adjacent microsatellites”
The list shows a part of the results.

Target: T1, MBP-FoxP1dN (Mus musculus, UniProt P58462 326-579)
T1 sequence: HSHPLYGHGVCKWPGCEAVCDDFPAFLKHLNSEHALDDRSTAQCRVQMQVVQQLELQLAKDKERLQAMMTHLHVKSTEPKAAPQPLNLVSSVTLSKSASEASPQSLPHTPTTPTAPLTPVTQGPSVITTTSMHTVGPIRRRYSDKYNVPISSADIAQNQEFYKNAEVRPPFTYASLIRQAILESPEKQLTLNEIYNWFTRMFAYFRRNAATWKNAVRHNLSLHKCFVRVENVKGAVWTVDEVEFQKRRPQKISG
Test: PD-seq (MBP pull-down with sequencing); 20 mM Tris-HCl pH 7.5, 100 mM NaCl, 1.5 mM MgCl2, 0.4 uM protein, 0.1 uM dsDNA library, 30 min, room temperature, amylose pull-down; high values mean tight binding
Conditions: protein: recombinant; tags: His6-MBP; chain copies: 2; dsDNA, one strand shown
Method in brief: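 The N-terminus-lacking fragment of mouse FoxP3 or FoxP1 carried a His6-MBP tag and was expressed in E. coli. At 0.4 µM it was incubated with 0.1 µM Klenow-filled degenerate double-stranded DNA library for 30 min at room temperature in Tris pH 7.5 buffer with NaCl and MgCl2, and complexes were caught on amylose resin, washed three times, released with proteinase K, PCR-barcoded and Illumina-sequenced. Binding is reads-per-million enrichment of pull-down over input with replicates pooled.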

Sequence	binding signal
GATGATTGTTCTCCCAGCTGATGAATTTTATACATCGAGTAAACAAATTTTCCTAATCTTTCTGTTCAAGCGCCATCTAC	1.09 RPM ratio (pull-down/input)
GATGATTGTTCTCCCAGCTGATGAATTGCAGCTATCGAGTAAACAAATTTTCCTAATCTTTCTGTTCAAGCGCCATCTAC	1.15 RPM ratio (pull-down/input)
GATGATTGTTCTCCCAGCTGATGAATTCATATGCTCGAGTAAACAAATTTTCCTAATCTTTCTGTTCAAGCGCCATCTAC	0.976 RPM ratio (pull-down/input)
GATGATTGTTCTCCCAGCTGATGAATTCTCGTATTCGAGTAAACAAATTTTCCTAATCTTTCTGTTCAAGCGCCATCTAC	1.04 RPM ratio (pull-down/input)
GATGATTGTTCTCCCAGCTGATGAATTCTATGGATCGAGTAAACAAATTTTCCTAATCTTTCTGTTCAAGCGCCATCTAC	0.847 RPM ratio (pull-down/input)
GATGATTGTTCTCCCAGCTGATGAATTGGACTAATCGAGTAAACAAATTTTCCTAATCTTTCTGTTCAAGCGCCATCTAC	0.999 RPM ratio (pull-down/input)
GATGATTGTTCTCCCAGCTGATGAATTAATTCGTTCGAGTAAACAAATTTTCCTAATCTTTCTGTTCAAGCGCCATCTAC	0.915 RPM ratio (pull-down/input)
GATGATTGTTCTCCCAGCTGATGAATTCATGTTTTCGAGTAAACAAATTTTCCTAATCTTTCTGTTCAAGCGCCATCTAC	2.2 RPM ratio (pull-down/input)
GATGATTGTTCTCCCAGCTGATGAATTCGCCAGGTCGAGTAAACAAATTTTCCTAATCTTTCTGTTCAAGCGCCATCTAC	0.761 RPM ratio (pull-down/input)
GATGATTGTTCTCCCAGCTGATGAATTACCGTGTTCGAGTAAACAAATTTTCCTAATCTTTCTGTTCAAGCGCCATCTAC	0.981 RPM ratio (pull-down/input)
GATGATTGTTCTCCCAGCTGATGAATTGCCGACGTCGAGTAAACAAATTTTCCTAATCTTTCTGTTCAAGCGCCATCTAC	0.952 RPM ratio (pull-down/input)
GATGATTGTTCTCCCAGCTGATGAATTCTTAACCTCGAGTAAACAAATTTTCCTAATCTTTCTGTTCAAGCGCCATCTAC	0.837 RPM ratio (pull-down/input)
GATGATTGTTCTCCCAGCTGATGAATTGGCACGTTCGAGTAAACAAATTTTCCTAATCTTTCTGTTCAAGCGCCATCTAC	0.908 RPM ratio (pull-down/input)
GATGATTGTTCTCCCAGCTGATGAATTGGGTACATCGAGTAAACAAATTTTCCTAATCTTTCTGTTCAAGCGCCATCTAC	1.01 RPM ratio (pull-down/input)
GATGATTGTTCTCCCAGCTGATGAATTGGATTGATCGAGTAAACAAATTTTCCTAATCTTTCTGTTCAAGCGCCATCTAC	0.946 RPM ratio (pull-down/input)
GATGATTGTTCTCCCAGCTGATGAATTATTTAGATCGAGTAAACAAATTTTCCTAATCTTTCTGTTCAAGCGCCATCTAC	1.57 RPM ratio (pull-down/input)

Sequence	binding signal
GATGATTGTTCTCCCAGCTGATGAATTTTCCGGATCGAGTAAACAAATTTTCCTAATCTTTCTGTTCAAGCGCCATCTAC	0.817 RPM ratio (pull-down/input)
GATGATTGTTCTCCCAGCTGATGAATTTGGCAACTCGAGTAAACAAATTTTCCTAATCTTTCTGTTCAAGCGCCATCTAC	1.03 RPM ratio (pull-down/input)
GATGATTGTTCTCCCAGCTGATGAATTGAAATCGTCGAGTAAACAAATTTTCCTAATCTTTCTGTTCAAGCGCCATCTAC	0.824 RPM ratio (pull-down/input)
GATGATTGTTCTCCCAGCTGATGAATTAGTGTCGTCGAGTAAACAAATTTTCCTAATCTTTCTGTTCAAGCGCCATCTAC	0.949 RPM ratio (pull-down/input)
GATGATTGTTCTCCCAGCTGATGAATTGGAGAACTCGAGTAAACAAATTTTCCTAATCTTTCTGTTCAAGCGCCATCTAC	0.834 RPM ratio (pull-down/input)
GATGATTGTTCTCCCAGCTGATGAATTTACCTGATCGAGTAAACAAATTTTCCTAATCTTTCTGTTCAAGCGCCATCTAC	1.21 RPM ratio (pull-down/input)
GATGATTGTTCTCCCAGCTGATGAATTGGGTGGCTCGAGTAAACAAATTTTCCTAATCTTTCTGTTCAAGCGCCATCTAC	0.802 RPM ratio (pull-down/input)
GATGATTGTTCTCCCAGCTGATGAATTGCAGGGATCGAGTAAACAAATTTTCCTAATCTTTCTGTTCAAGCGCCATCTAC	1.01 RPM ratio (pull-down/input)
GATGATTGTTCTCCCAGCTGATGAATTTTCCTAATCGAGTAAACAAATTTTCCTAATCTTTCTGTTCAAGCGCCATCTAC	1.12 RPM ratio (pull-down/input)
GATGATTGTTCTCCCAGCTGATGAATTGATCGCCTCGAGTAAACAAATTTTCCTAATCTTTCTGTTCAAGCGCCATCTAC	0.991 RPM ratio (pull-down/input)
GATGATTGTTCTCCCAGCTGATGAATTTGGGAGGTCGAGTAAACAAATTTTCCTAATCTTTCTGTTCAAGCGCCATCTAC	0.799 RPM ratio (pull-down/input)
GATGATTGTTCTCCCAGCTGATGAATTGCCGTCGTCGAGTAAACAAATTTTCCTAATCTTTCTGTTCAAGCGCCATCTAC	0.968 RPM ratio (pull-down/input)
GATGATTGTTCTCCCAGCTGATGAATTTTAAAGTTCGAGTAAACAAATTTTCCTAATCTTTCTGTTCAAGCGCCATCTAC	0.837 RPM ratio (pull-down/input)
GATGATTGTTCTCCCAGCTGATGAATTTATTCTTTCGAGTAAACAAATTTTCCTAATCTTTCTGTTCAAGCGCCATCTAC	1.34 RPM ratio (pull-down/input)
GATGATTGTTCTCCCAGCTGATGAATTCATCGATTCGAGTAAACAAATTTTCCTAATCTTTCTGTTCAAGCGCCATCTAC	0.861 RPM ratio (pull-down/input)
